Experimental data: the supplement of paper PMC3334620
Over roughly 33,000 sequences, “E-score (-0.5 to 0.5)” has its median near -0.016; the highest 2% begin near 0.32. The list shows a part of the results.

Target: T1, Stp1 (UniProt B3LFK1)
T1 sequence: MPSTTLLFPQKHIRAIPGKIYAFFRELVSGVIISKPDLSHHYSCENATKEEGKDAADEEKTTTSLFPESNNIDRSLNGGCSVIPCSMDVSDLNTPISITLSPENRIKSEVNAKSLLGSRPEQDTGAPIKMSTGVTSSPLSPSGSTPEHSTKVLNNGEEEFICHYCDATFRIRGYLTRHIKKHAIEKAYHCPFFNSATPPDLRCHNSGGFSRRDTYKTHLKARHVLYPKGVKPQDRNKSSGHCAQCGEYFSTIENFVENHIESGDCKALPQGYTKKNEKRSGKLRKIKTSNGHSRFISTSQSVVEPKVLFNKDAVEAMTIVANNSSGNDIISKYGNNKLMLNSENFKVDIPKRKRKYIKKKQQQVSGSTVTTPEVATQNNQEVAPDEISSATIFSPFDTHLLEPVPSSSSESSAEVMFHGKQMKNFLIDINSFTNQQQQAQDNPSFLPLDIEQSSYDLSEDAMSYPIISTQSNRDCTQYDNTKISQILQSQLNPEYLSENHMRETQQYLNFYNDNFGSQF
Test: PBM E-score (8-mer binding enrichment) (E-score (-0.5 to 0.5)); higher = stronger / more preferred TF binding; most listed sequences are background and not binding sites
Conditions: protein concentration: 200 nM; construct: GST-full length
Experimental: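 Universal 'all 10-mer' protein binding microarrays (Agilent AMADID 015681) probed with GST-tagged S. cerevisiae TFs (full-length or DBD) made by in vitro transcription/translation (PURExpress), about 100-200 nM. Bound TF was detected with fluorescent anti-GST. Each ungapped 8-mer (which stands for itself and its reverse complement) is scored by the PBM enrichment score (E-score), a modified Wilcoxon-Mann-Whitney statistic from -0.5 to +0.5, computed with the Universal PBM Analysis Suite. Scale: above 0.35 generally sequence-specific binding.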

Sequence | PBM E-score
CATAAACC | 0.00914
AGGTATGG | -0.077
CTCCAAAG | -0.0697
AAGATGCC | 0.277
ACTTTAGC | -0.157
AGGGGAAC | -0.331
GCTTTCCA | 0.207
GGTTTTCA | 0.208
GATACATC | 0.032
ATGTCTAC | -0.0869
AAAAAACT | 0.00808
ATGTTGGA | 0.153
CAGATCGA | -0.22
ATGTCGGG | -0.0272
TGGCTGAA | 0.03
AGGCCGAG | -0.00317
GGAATCAC | -0.0225
CCATCTAA | 0.0176
AGAGCACG | -0.0369
GCACGAAC | 0.101
AATCACGT | 0.147
CGCTAGCA | -0.247

Sequence | PBM E-score
AACACTAA | 0.0707
GGAAATGA | 0.0633
GATAAGGA | -0.0309
AACAACTG | 0.0792
CACCTCCC | -0.321
CGGTCAGC | -0.206
AAATTAGC | 0.0441
GCCGAGCA | -0.116
GTATATCA | 0.114
AAAGAGGA | -0.235
AAACAACT | 0.051
GGAGGTTA | -0.237
AGAAGGGA | -0.344
ACGGCCGC | 0.406
GGAAGGGA | -0.309
CACTTCAA | -0.0416
AATGATAC | 0.234
AGGCGCAC | 0.179
CGAGTACC | -0.0293
GACGTCTA | -0.267
ACAACCGG | -0.0919
CATTTGCC | 0.0681

Sequence | PBM E-score
ATACTGTA | 0.225
TTCTGAAA | 0.131
CTTTACCC | 0.00485
CATATTCA | 0.212
AGGGTGAA | -0.262
CGGCATGA | 0.346
CCTGAAAC | 0.167
CGCCCTTA | -0.219
CACTGATC | -0.2
CCGGACGG | 0.0116
CTCTAGGC | -0.0817
GGAGACCA | -0.227
CCCTGCTC | -0.229
CTGCGTGC | 0.0439
GGTGACCA | -0.303
AGTCGTAT | 0.0617
CTTAAATA | -0.0705
CGACCCTA | -0.311
GCCAGTTA | 0.0242
ACTCCCCG | 0.108
AATTGCCG | 0.341
GGCGGACA | -0.0656

Sequence | PBM E-score
GCGTATCC | -0.149
GTGCTTGA | -0.0806
CGAACACG | 0.142
CCCACGCG | -0.12
CAAGTGTG | 0.127
AAGGGGCT | -0.109
ACCCATTA | -0.223
CGGTACGA | -0.0518
CCGATGCG | 0.0673
GGCTTGGA | -0.128
GACAGAGA | -0.0997
CGACGTCG | -0.22
GATTATCA | 0.16
AGTTGGCG | 0.157
GATGGTAA | 0.0115
GAGTTAGA | -0.0275
AATAAAAA | 0.212
CGAAGTCG | -0.0551
ACCATAGG | 0.00774
AAGGAGAC | -0.0851
